# PubChem BioAssay (NCI)
#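 Protocol summary: plate cells (96-well), add compound at 5 concentrations, incubate 48 h, interpolate endpoints linearly. The concentration for full growth arrest is given as TGI.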
# Tested on: NCI-H322M lung
# Experiment: inhibition of tumour cell growth, NCI panel, 48 h
compound,measurement,value
C/C(=N\Nc1ncnc2ccccc12)c1ccccn1,TGI,3.17 µM
